# Measurements: publication PMC12136788
# The list shows a part of the results.
# T1: UNK ZnF1-3 (human, UniProt Q9C0B0 31-174)
# T1 sequence: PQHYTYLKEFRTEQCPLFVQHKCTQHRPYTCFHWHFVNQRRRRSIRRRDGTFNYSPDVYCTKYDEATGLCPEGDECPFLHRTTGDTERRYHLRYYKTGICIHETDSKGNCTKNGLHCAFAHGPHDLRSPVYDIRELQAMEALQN
# B1: 71576759_71576879_1049_CDS_ENSG00000075292_ENST00000264447|human|control|control (ssRNA)
# RNA: GGGAGUUCUACAGUCCGACGAUCAACAGGAAACAUAGAAUUACAUAUCACAUUUGGAUUGGGAACAGAUGCAGAAAUGUUCUGCUGUGACUGAAAUUCAUUCUCGACCUCAUCAGUUGGAAUUUCAGGAUCAUAAAUACGUACCAACAGAGGAUUGAGCAUCA
# B2: chr17:65740002:65740003:+_ENSG00000130935_ENST00000581375|hu_hu|hu_hu_hu_mus_False|8_108 (ssRNA)
# RNA: GGGAGUUCUACAGUCCGACGAUCAACCCGUUCUUGCUCCCUGGACGAACAGGAAGAUUCAUAUUAAAAAAAAUAUAUAUCCAUCAAGUUAGGUGUGGUGGCCACACCUUUACUCCCAGCACUUUGGGAAUAUAAUCUCUGAGUCAACAGAGGAUUGAGCAUCA
# B3: chr2:91389038:91389039:+_ENSMUSG00000040549_ENSMUST00000099716|mus_mus|FALSE|FALSE (ssRNA)
# RNA: GGGAGUUCUACAGUCCGACGAUCUAGUCCUUUCAAUUGAACCACUGCAUUGGAAUCAGUGACAAAUUUUUUGAUUAAUCCUAAGUAUUUGGACCAUUCUGGACUCUUUUCAUCCUUUAUUUUCUGGAAGAUCUUCAAGGCUUCCAACAGAGGAUUGAGCAUCA
# B4: chr11:87793471:87793472:-_ENSMUSG00000020483_ENSMUST00000020775|mus_mus|mus_mus_mus_hu_False|28_68 (ssRNA)
# RNA: GGGAGUUCUACAGUCCGACGAUCUGGACUUGAAAAUAAAAGAAUAAGCUGGAUCCCCCACCCCCCCACAGUGUCAACCCUACACGAGAGUUUUGAAGGCGACUCAUGAAUCAGCAGAGCUCAAACGGCAAUGACCACCCCACCCAACAGAGGAUUGAGCAUCA
# B5: chr1:178664722:178664723:-_ENSMUSG00000057335_ENSMUST00000057037|mus_hu|motif|central (ssRNA)
# RNA: GGGAGUUCUACAGUCCGACGAUCAGGCCUUUGUCGUCGUCUUGCAGGGUCCUUAUAAAUGUGUAAGACAGACAGCAUUUACGGUUGAGUCCUACAGGGAAACACACAGAAGCAAUUCAUUGCUUGGGAGUGAAACUAUCAACUCAACAGAGGAUUGAGCAUCA
# B6: chr15:83699029:83699030:-_ENSG00000064726_ENST00000261721|hu_hu|FALSE|FALSE (ssRNA)
# RNA: GGGAGUUCUACAGUCCGACGAUCGCAUCUUGGUCGGUCAAUGUAUUCAACUCGGGGUUUAGGGUUGACAGUAAAAUGAAGAAAGAGGUUUACCACUUCACGAUCUGACAAAAUUCCAGAUUGAGCAGGACCUGCUGCAAAUUCCAACAGAGGAUUGAGCAUCA
# B7: chr12:42180722:42180723:-_ENSMUSG00000036295_ENSMUST00000043884|mus_hu|mus_mus_mus_hu_True|48_68 (ssRNA)
# RNA: GGGAGUUCUACAGUCCGACGAUCCUGUAGGAGAAGAAUCUGUGUGUUAGCUGGCAAUCUGGCUGGGAAGUUUAAAAGACCUAAAUCAUUACAGUCCACUGUAGAUGCUUCCAUAUAAAUGGAUCUGGGUGUAAACCAAGGCCUCAACAGAGGAUUGAGCAUCA
# B8: chr2:202488911:202488912:-_ENSG00000155755_ENST00000286196|hu_mus|hu_hu_hu_mus_False|48_108 (ssRNA)
# RNA: GGGAGUUCUACAGUCCGACGAUCAUUUAACAUUUUUUCAUAAUCUCCAGUAGCAUUUCAGCAUUAUGUAACAAAAGCUCAAUUGUAAAUACACAUGUCUUAUAAAAAUACACUUAAAAACACGAGUGGGGAGCGCAGGCGCCACAACAGAGGAUUGAGCAUCA
# B9: chr5:128448638:128448639:+_ENSG00000066583_ENST00000173527|hu_hu|FALSE|FALSE (ssRNA)
# RNA: GGGAGUUCUACAGUCCGACGAUCAGCACUCGCCUUAAUUAGAUUCUGAAUUUCCUUGAAUUUUGGAUGGUCCUUAUCAGCUACCAGCUGAAGCAGAACAGCCUCACUCGUGGUCACUAUGAUCCCGGUUCGAGCGAGACGCUCCAACAGAGGAUUGAGCAUCA
# B10: chr4:43703020:43703021:+_ENSMUSG00000078716_ENSMUST00000107866|mus_hu|FALSE|FALSE (ssRNA)
# RNA: GGGAGUUCUACAGUCCGACGAUCCACACUGCCCGCAAUGAGCAUAUGCCAAAUGCUGUGAAUGUAGAAGUAGUUGUCCCGGGUCUCCACAAAAGCAUAAAGCAGGACGGCACUGCCUGCAAUAAGGCUGCCAGGGCACAAGUACAACAGAGGAUUGAGCAUCA
# B11: chr18:33598288:33598289:-_ENSMUSG00000042834_ENSMUST00000171533|mus_mus|FALSE|FALSE (ssRNA)
# RNA: GGGAGUUCUACAGUCCGACGAUCAGUCAGAAUGAUUAAAAACUGGUUUGAUGAAACCUAUUUGUCCACUGUAAAUUCUCUAAAGCCAGGCUUAGAGUCCCAUAGUUUCUUCUUAUAGUUGAUGAUUUACACAGAAAAAAAAAACAACAGAGGAUUGAGCAUCA
# B12: chr1:163115689:163115690:-_ENSG00000143248_ENST00000313961|hu_hu|FALSE|FALSE (ssRNA)
# RNA: GGGAGUUCUACAGUCCGACGAUCCAAUGUAAUCUUCUACUUAACAUUUCAGAAUUUUAUUAAUCCUUUAAAAAUCACCCUAUUUCUUUUGAGUUAAUAUCCUCAUCUCGAUUACCCUCAUACAUGGCUUAGUUUGAUUCUGUUCAACAGAGGAUUGAGCAUCA
# B13: chr5:36814161:36814162:+_ENSMUSG00000029198_ENSMUST00000031099|mus_mus|FALSE|FALSE (ssRNA)
# RNA: GGGAGUUCUACAGUCCGACGAUCACUCCCAGAGUCCCUGACUGUGCAAGCAGCUUCAUGUUCUGCUUAGCUUACUUAAGAUUUCCAACAAGGCUGGGCAAGGGUCAGAUGAAUUCACAGAUGAGAAAUUACAAGCCCGCCCUUCAACAGAGGAUUGAGCAUCA
# B14: chr12:493273:493274:-_ENSG00000073614_ENST00000399788|hu_mus|hu_hu_hu_mus_False|48_88 (ssRNA)
# RNA: GGGAGUUCUACAGUCCGACGAUCUUUUCUCUCCACCACAGGGAUCUUCAGAGUAGAUCCUUGAAGUUCCCAAAAUUUUGCCAGUUGAUCCAAGAAAUCCAAUCUUACUCUAGUCAUUGCCUCAAGUUCAUUCAGGCGCUGGACCAACAGAGGAUUGAGCAUCA
# B15: chr13:111857651:111857652:+_ENSG00000102606_ENST00000375736|hu_hu|motif|central (ssRNA)
# RNA: GGGAGUUCUACAGUCCGACGAUCGCACACACGGAGUCACUCCCCAGCCCGAUGUCUGCUGUUACUUUAUUUAGAGUCACGGAGGAACUGAGGACCUUGUUAAAAUUCUGCCCCUGAUACAAAUCAUUUGCAUCAAACGUCUCCCAACAGAGGAUUGAGCAUCA
# B16: chr7:7679991:7679992:-_ENSG00000106399_ENST00000396682|hu_hu|hu_hu_hu_mus_False|28_28 (ssRNA)
# RNA: GGGAGUUCUACAGUCCGACGAUCUGGGAUGAAUCUUUUCCAGCUUCCCCACGAAGCACACGGGCCGGUCGAUAUACUGUGGUAACAUGCUGGCGUUGACGCGCGCUCUGGGCAAGUGCAUUAUGUCCUCCAUGAUUCUGCCGCCAACAGAGGAUUGAGCAUCA
# B17: chr1:163116782:163116783:-_ENSG00000143248_ENST00000313961|hu_hu|motif|central (ssRNA)
# RNA: GGGAGUUCUACAGUCCGACGAUCUUGAAAUAGGUCUGUCCACACUUAAUAUUCUUUUUUAGACCAAUUUAGCUGGAAAUCGGUUACUUAACCCACAUUCAUUGAUAUCAUAGUCUUGUCUUAUAUUUCUUUGCCUUAGGCAGGCAACAGAGGAUUGAGCAUCA
# B18: 58102446_58102566_1542_3pUTR_ENSG00000171649_ENST00000597850|human|control|control (ssRNA)
# RNA: GGGAGUUCUACAGUCCGACGAUCAAGGCCUUUCUCCAGUGUGAACCACUUGGUGUUGAAUGAGACCAGACUUUUGGCUAAAGGACUUUCCACACUGGCCACACUCAUAAGGCCUUGCUCCAGUAUGAAUUCUCCGGUGUUGAACAACAGAGGAUUGAGCAUCA
# B19: chr10:94963105:94963106:-_ENSMUSG00000062981_ENSMUST00000075829|mus_hu|motif|central (ssRNA)
# RNA: GGGAGUUCUACAGUCCGACGAUCUUAUCAAGUGGUAUGAAAAAAGAUGUUCUGAAGAGAAACUGCUUUUAGAAUCUGCUUCGGAGCAUACCAAUUUCUACUCCUGCUUGACGGCUUCUCACCACGAACCCGCCAUCUUGUUUCCAACAGAGGAUUGAGCAUCA
# B20: chr3:176740097:176740098:-_ENSG00000177565_ENST00000430069|hu_mus|hu_hu_hu_mus_True|18_28 (ssRNA)
# RNA: GGGAGUUCUACAGUCCGACGAUCUGUUUUGUAUACCACAAAAGGAGGCACUUUCAGUAUCUGCAAAAGGUGUUUAGUCCUAAAACAUACUCACCUAGAGGAUAACUAAAACAGAAUUCAAUACAAUCUCUAAGACCUACUCCACAACAGAGGAUUGAGCAUCA
# B21: chr14:102349618:102349619:+_ENSG00000078304_ENST00000445439|hu_hu|motif|central (ssRNA)
# RNA: GGGAGUUCUACAGUCCGACGAUCUACAAACUUCUGAUCAAUAUAUUUCUUCGCUAUAUUAGGUUGGAAAUCUGGAGACUCGGAAAAUCUUAAGAAAAAUUCAUAAACAAGCUGUAGAUGAGGCCAGGCUGCUUCUAACGUUGGCAACAGAGGAUUGAGCAUCA
# B22: chr17:30356047:30356048:-_ENSMUSG00000062202_ENSMUST00000168787|mus_mus|motif|central (ssRNA)
# RNA: GGGAGUUCUACAGUCCGACGAUCUAUUGCUUGCUAGAGACACUGGCAACUCCAGGCUGGAUGCUGCCCCACACACAAUAGCGGCACGCUGGCUACAUCCAUGGAAACCUCCCUACCAAAGGCAGCCACACCACACAGCAAAAUCAACAGAGGAUUGAGCAUCA
# Biological target: T1, UNK ZnF1-3
# Test: nsRBNS (natural sequence RNA bind-n-seq); RBNS binding buffer (assumed for nsRBNS): 25 mM Tris pH 7.5, 150 mM KCl, 3 mM MgCl2, 0.01% Triton X-100, 500 ug/ml BSA, 20 U/ml SUPERase-In, 4 C; UNK is unkempt and MSI1 is Musashi-1; names of the RNAs are library labels; protein concentration not given here; high values mean tight binding
row,Binder,binding signal [enrichment R]
1,B1,0.894
2,B2,1.07
3,B3,0.865
4,B4,1.9
5,B5,0.925
6,B6,1.8
7,B7,1.36
8,B8,1.07
9,B9,0.882
10,B10,1.12
11,B11,1.26
12,B12,0.603
13,B13,1.4
14,B14,1.13
15,B15,1.49
16,B16,0.66
17,B17,0.503
18,B18,0.463
19,B19,0.476
20,B20,0.646
21,B21,1.79
22,B22,1.31
